Experiments:
[1] = molecular target: T1, Recombinant human CTLA-4 (human, UniProt P16410 37-162); assay: ELISA, plate coated with recombinant human CTLA-4, anti-human HRP detection
T1 construct: Bought protein; also called hCTLA-4
T1 sequence (looked up): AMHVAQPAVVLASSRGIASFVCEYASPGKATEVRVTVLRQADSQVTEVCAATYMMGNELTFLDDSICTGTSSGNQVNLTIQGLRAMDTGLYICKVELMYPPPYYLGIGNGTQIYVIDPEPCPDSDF

[2] = molecular target: T2, Recombinant human PD-L1 (human, UniProt Q9NZQ7 fragment); assay: ELISA, plate coated with recombinant human PD-L1, anti-human HRP detection
T2 construct: Bought protein; also called hPD-L1
T2 sequence (Q9NZQ7 19-238 limits assumed): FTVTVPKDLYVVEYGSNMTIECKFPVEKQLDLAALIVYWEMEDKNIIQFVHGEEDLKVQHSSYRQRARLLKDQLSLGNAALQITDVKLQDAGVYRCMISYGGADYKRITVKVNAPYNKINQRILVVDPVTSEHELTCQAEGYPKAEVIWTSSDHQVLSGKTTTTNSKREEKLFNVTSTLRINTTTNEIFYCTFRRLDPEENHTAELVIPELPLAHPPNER

B1: Fusion protein BY24.4 (other)
light: DIQMTQSPSSLSASVGDRVTITCSASQDISNYLNWYQQKPGKAPKVLIYFTSSLHSGVPSRFSGSGSGTDFTLTISSLQPEDFATYYCQQYSTVPWTFGQGTKVEIKRTVAAPSVFIFPPSDEQLKSGTASVVCLLNNFYPREAKVQWKVDNALQSGNSQESVTEQDSKDSTYSLSSTLTLSKADYEKHKVYACEVTHQGLSSPVTKSFNRGEC
heavy: EVQLVESGGGLVQPGGSLRLSCAASGYTFTNYGMNWVRQAPGKGLEWVGWINTYTGEPTYAADFKRRFTFSLDTSKSTAYLQMNSLRAEDTAVYYCAKYPHYYGSSHWYFDVWGQGTLVTVSSASTKGPSVFPLAPCSRSTSESTAALGCLVKDYFPEPVTVSWNSGALTSGVHTFPAVLQSSGLYSLSSVVTVPSSSLGTKTYTCNVDHKPSNTKVDKRV[human IgG4 Fc with S228P (EU numbers) left out here]GGGSGGGGSGGGGSVIHVTKEVKEVATLSCGHNVSVEELAQTRIYWQKEKKMVLTMMSGDMNIWPEYKNRTIFDITNNLSIVILALRPSDEGTYECVVLKYEKDAFKREHLAEVTLSVKADFPTPS
notes: Full-length anti-VEGF antibody (kappa, IgG4) with CD80 IgV fused through a (G4S)3 linker to the C-terminus of each heavy chain; also called anti-VEGF antibody-CD80 fusion protein; BY24.4 (κ, IgG4)
Q: With B1 as the binder, how does the EC50 [1] read?
A: 2.27 µg/mL

Q: What about the EC50 [2] of the same binder?
A: 6.35 µg/mL
